Measurements published in PubChem BioAssay AID1159614 (National Center for Advancing Translational Sciences (NCATS), 2016).
About 65 (0.1%) of roughly 45,000 compounds were called active. The call rests on the fitted dose curve; in most records, active means well fitted activation curve with a large enough effect; inconclusive means small, poorly fitted or top-dose-only effect; inactive means no such curve, though single readings can be large or run the other way. This is one part of the list.

Molecular target: Galactocerebrosidase (Homo sapiens) (UniProt P54803)
Experiment: A Novel Cell-Based Assay to Identify Small Molecules for B -Galactocerebrosidase; further: 0% is about no effect; nearly all actives have a fitted effect of over 65% in size
Details: 145M-Twi-hGALC-G270D cells (Twitcher mouse brain line with human GALC G270D), HMU-beta-Gal fluorescence, 48 h; series mostly up to 57.5 µM; activation: at the top concentration
Summary of the method: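 Fluorogenic HMU-b-Gal hydrolysis (0.1 mM final, pH 5.2 citrate-phosphate with 1 mg/mL sodium taurocholate; carbonate stop buffer) measures mutant GALC activity after compound treatment of live 145M-Twi Twitcher brain cells stably carrying human GALC-G270D, with wild-type GALC line alongside; activation sought.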

Sequence of UniProt P54803 (P54803 whole entry, looked up): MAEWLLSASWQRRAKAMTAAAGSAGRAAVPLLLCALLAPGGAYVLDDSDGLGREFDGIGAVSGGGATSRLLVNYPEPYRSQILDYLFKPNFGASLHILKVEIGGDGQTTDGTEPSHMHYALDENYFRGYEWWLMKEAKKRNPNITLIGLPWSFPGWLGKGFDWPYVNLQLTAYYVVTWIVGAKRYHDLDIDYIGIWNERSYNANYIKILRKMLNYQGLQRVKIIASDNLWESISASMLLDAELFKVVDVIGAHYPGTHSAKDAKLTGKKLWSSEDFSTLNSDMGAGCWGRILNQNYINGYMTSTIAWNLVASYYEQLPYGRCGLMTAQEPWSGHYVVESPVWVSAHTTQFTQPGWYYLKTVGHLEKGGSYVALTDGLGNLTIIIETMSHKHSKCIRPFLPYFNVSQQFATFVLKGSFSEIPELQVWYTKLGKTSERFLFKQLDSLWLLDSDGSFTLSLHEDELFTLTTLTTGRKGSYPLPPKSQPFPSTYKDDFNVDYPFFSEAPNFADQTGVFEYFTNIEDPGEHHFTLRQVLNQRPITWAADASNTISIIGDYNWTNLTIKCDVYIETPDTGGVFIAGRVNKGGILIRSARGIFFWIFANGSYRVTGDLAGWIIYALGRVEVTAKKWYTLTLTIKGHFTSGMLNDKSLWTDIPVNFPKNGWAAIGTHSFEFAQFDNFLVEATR

activation, inactive:
Cc1ccc2c(CC(=O)Nc3ccccc3C(F)(F)F)coc2c1C -22.6%, COc1ccc(Cl)cc1NC(=O)c1cc2c(s1)-c1ccccc1OC2 -9.32%, CCc1ccc(OC(C)C(=O)Nc2c(C(=O)c3ccccc3)oc3ccccc23)cc1 (configuration not stated) -14.8%, COCCNC(=O)CCc1nc2cccnc2n1Cc1ccc(OC)cc1 -14.7%, COc1cccc(C2C(C(=O)Nc3ccccc3)=C(C)Nc3nc(-c4ccccc4)nn32)c1 (configuration not stated) 1.17%, COc1ccc(OC)c(NC(=O)CSc2cn(CC(=O)N3CCOCC3)c3ccccc23)c1 -10.2%, CS(=O)(=O)N(CC(=O)NCCSc1ccccc1)c1cc(C(F)(F)F)ccc1Cl -0.41%, Oc1c(Br)cc(Br)cc1-c1nc2ccccc2s1 10.9%, COc1ccc(-c2noc(-c3ccc(NC4CCCC4)c([N+](=O)[O-])c3)n2)cc1 -24.1%, CCCN(CCC)C(=O)C1CCCN(S(=O)(=O)c2ccc3c(c2)oc(=O)n3C)C1 (configuration not stated) -3.7%, Cc1ccc(-c2nc(CS(=O)CC(=O)N3CCN(c4ccccc4)CC3)c(C)o2)cc1 (configuration not stated) -16.5%, O=C(c1ccccc1)c1ccccc1NC(=O)c1ccccc1C(=O)O -10.6%, Cc1ccc(C)c(NC(=O)C2CCCN(S(=O)(=O)c3ccc4[nH]c(=O)ccc4c3)C2)c1 (configuration not stated) -5.13%, Cc1ccc(C(=O)c2oc3ccccc3c2NC(=O)c2cc(-c3ccccc3)on2)cc1F 1.66%, CC(=O)c1ccc(N2CCN(C(=O)c3cc4cc5cc(C)ccc5nc4s3)CC2)cc1 -13.8%, CCN(CC)c1cc(C)c2cc(NC(=O)/C=C/c3ccc(C)cc3)ccc2n1 -6.46%, CCOc1ccc(CNC(=O)c2c(C)nn(-c3ccc(F)cc3)c2-n2cccc2)cc1 -30%, CC(=O)Nc1nonc1-c1nnc(SCC(=O)Nc2ccc(C)cc2C)n1C -5.29%, COc1ccc(NC(=O)[C@@H](c2ccccc2)N2Cc3ccccc3C2=O)cc1OC -15.1%, O=C(Nc1ccc(SC(F)F)cc1)c1cc(-c2ccc3c(c2)OCCO3)on1 -14.1%, Cc1noc(Cn2c(=O)c3cc4c(cc3n(CC(=O)Nc3cccc(Cl)c3)c2=O)OCO4)n1 -8.58%, Cc1ccc(CSCC(=O)N2CCN(c3cc(Cl)ccc3C)CC2)cc1 -12.1%, C=CCNC(N)=S -11%, Cc1ccc(-n2nc(C(=O)NCCN(C)C)c(=O)n(C)c2=O)cc1 -16.1%, CC1CCc2c(sc(NC(=O)COc3ccccc3)c2C(=O)Nc2ccccc2Cl)C1 (configuration not stated) -11.1%, CCCCOc1ccc(-c2cc3c(=O)n(CC(=O)Nc4ccc(Cl)cc4Cl)ccn3n2)cc1 3.11%, O=C(CSc1nc2c(cnn2-c2ccc(F)cc2)c(=O)[nH]1)Nc1ccc(Br)cc1 -13.6%, Cn1c(=O)[nH]c(=O)c2c1nc1n(CCO)c(-c3ccccc3)cn21 -8.07%, CC(=O)c1ccc2c(c1)N(CCCN(C)C)c1ccccc1S2 -0.912%, CCOc1cccc2cc(-c3nnc(Nc4ccc(F)c(Cl)c4)s3)c(=O)oc12 -3.64%, Cc1ccc(-c2nn(CC(=O)NC3CCCCC3)c3c2cnc2ccc(F)cc23)cc1C -7.07%, COc1ccc(C2C(C(N)=O)=C(C)Nc3nc(-c4ccccc4Cl)nn32)cc1 (configuration not stated) -14.2%, COc1cccc(NC(=O)CC2C(=O)OCCN2Cc2ccccc2)c1 (configuration not stated) -10%, Cc1[nH]c2ccccc2c1C(=O)C(=O)NC1CC(=O)N(c2cccc(F)c2)C1 (configuration not stated) -16%, Cc1ccc2oc(C(=O)N(Cc3ccccc3F)C3CCS(=O)(=O)C3)c(C)c2c1 (configuration not stated) -29.9%, Cc1cccc(C)c1Nc1c(-c2ccc(Cl)s2)nc2ncccn12 -10.9%, Cc1ccc(Cl)cc1NC(=O)CN(C)S(=O)(=O)c1ccc2c(c1)n(C)c(=O)c(=O)n2C -7.56%, COc1cccc(CNC(=O)c2cc(=O)[nH]c3ccc(S(=O)(=O)N4CCCCC4)cc23)c1 -6.88%, COc1ccccc1CNC(=O)c1ccc2c(c1)sc1nc(-c3ccc(F)cc3)cn12 -8.09%, CC(C)C(=O)OC1=CN(Cc2ccccc2)S(=O)(=O)c2ccccc21 -8.03%, CCN(CC)c1ccc2cc(-c3nc(-c4ccccc4F)no3)c(=O)oc2c1 1.25%, Cc1ccc(N(C)C(=O)CCS(=O)(=O)c2cc3c(cc2Cl)NC(=O)CO3)cc1 -18.8%, COc1cc(NC(=O)NCCN2CCN(c3ccccc3)CC2)cc(OC)c1OC -11.2%, Cc1cccc(C(=O)Nc2ccc(S(=O)(=O)N(Cc3ccccc3)c3ccccc3)cc2)c1 -22.2%, Cc1cccc(NC(=O)CSc2nc3c(sc4ccccc43)c(=O)n2CCCC(=O)NC2CCCC2)c1 -15.8%, CCO[C@@H]1O[C@H](C(COCc2ccccc2)OCc2ccccc2)[C@H](OCc2ccccc2)[C@H]1O (some centres not stated) -3.33%, Cc1cccc(N2CCN(C(=O)C3CCN(c4ncnc5c4nc4n5CCCCC4)CC3)CC2)c1C 10.6%, CCOC(=O)C1CCCN(c2ncnc3c2nnn3C)C1 (configuration not stated) -10.5%, O=C(Nc1cccc(C(F)(F)F)c1)c1ccc2snnc2c1 -15.9%, CC(=O)c1ccc(NC(=O)Cn2c(=O)nc(-c3ccccc3)c3cc(Cl)ccc32)cc1 -1.46%, CCc1ccc(NC(=O)Nc2nnc(N(C)C3CCCCC3)s2)cc1 18.3%, CCOc1ccc(-c2nnc(SCC(=O)c3ccc(Br)cc3)n2-c2ccccc2)cc1 26.7%, O=C(CN1C(=O)CCc2cc(S(=O)(=O)N3CCOCC3)ccc21)NCc1ccc(Cl)cc1 -10.9%, CCOc1ccc(CCNC(=O)c2cc3c(s2)-c2c(C)cccc2OC3)cc1 -12.3%, Cc1nc2ccn(Cc3cccnc3)c(=O)c2cc1C(=O)Nc1ccc(F)cc1F -10.1%, COCCCNC(=O)c1ccc(C)c(-n2c(C)nc3cccnc32)c1 -12.1%, COCCn1c(SCC(=O)c2c[nH]c3ccccc23)nc2cc(C(=O)NC(C)C)ccc2c1=O 4.13%, O=S(=O)(Nc1ccc(F)cc1F)c1ccc(-n2cccn2)cc1 1.5%, Cc1ccc(OCC(=O)Nc2ccc3nc(SCCOc4ccccc4)sc3c2)cc1 2.27%, CCOC(=O)Cn1c(=O)oc2cc(S(=O)(=O)N3CCC(C(=O)OCC)CC3)ccc21 -15.6%, COc1ccc(NC(=O)Cn2nnc3sc4c(c3c2=O)CCCC4)cc1 -14.4%, Cc1ccc(NC(=O)CSc2nnc(-c3ccc(Br)cc3)o2)c(C)c1 -5.76%, Cc1cc(C)c(NC(=O)CSc2nc3ccncc3[nH]2)c(C)c1 -10.7%, COc1ccc(CNC(=O)c2ccc3nc(C(C)C)oc3c2)cc1OC -6.7%, Cc1ccc(NC(=O)CN2C(=O)COc3ccc(S(=O)(=O)Nc4ccccc4)cc32)c(C)c1 -14.1%, COC(=O)c1cc2oc3ccccc3c2n1Cc1c(C)cc(C)cc1C 6.58%, CCc1ccc(NC(=O)CCc2nnc3n(C)c(=O)c4sccc4n23)cc1 -5.16%, Cc1cc(C)c2c(=O)cc(C(=O)NCc3ccc(S(N)(=O)=O)cc3)oc2c1 -15.6%, COCCCNC(=O)CSc1nc(-c2ccc(OC)c(OC)c2)[nH]c1-c1ccc(F)cc1 -14.5%, Cc1ccc(C2=NC(c3ccccc3)=Nc3ccc(Cl)cc3N2)cc1 -14%, Cc1nc2cccnc2n1-c1cccc(C(=O)NCCc2ccc(S(N)(=O)=O)cc2)c1 -24.9%, COc1cc2ccccc2cc1C(=O)Nc1cccc(-c2nc3cc(C)ccc3o2)c1C -11.1%, Cc1nn2c(=O)cc(COC(=O)COc3ccc(F)cc3)nc2s1 -9.86%, Cc1cc(C)cc(NC(=O)Cn2c(=O)n(Cc3ccco3)c(=O)c3oc4ccccc4c32)c1 -10.3%, Cc1cccc(NC(=O)C2CCCN(S(=O)(=O)c3ccc(Br)s3)C2)c1 (configuration not stated) -17.1%, O=C(Nc1ccc(Cl)cc1C(F)(F)F)c1cc(S(=O)(=O)N2CCOCC2)ccc1F -0.52%, CCOc1ccc(S(=O)(=O)n2nc(C)c(S(=O)(=O)N3CCCCC3)c2C)cc1 -2.18%, COc1cc(CN2CCc3nc(N4CCN(c5ccccn5)CC4)ncc3C2)cc(OC)c1OC -10.8%, CC(=O)c1cc(-c2ccccc2)n(CCC(=O)NC(C)c2ccccc2)c1C (configuration not stated) -13.8%, COC(=O)c1ccccc1NS(=O)(=O)c1ccc2c(c1)CCCN2C(C)=O -8.48%, CCCC(=O)n1nc(-c2cccnc2)nc1NCc1ccc(OC)cc1 -28.6%, N/C(=N\N=C\c1ccc(Cl)cc1)N/N=C/c1ccc(Cl)cc1 -14.6%, COc1ccc(C(=O)Nc2cc3c(cc2N2CCCC2)n(C)c(=O)c(=O)n3C)cc1OC -17.2%, Cc1nn(CCCC(=O)NCc2ccccc2)c(=O)c2cc3sccc3n12 -17.9%, CC(C)(C)OC(=O)N1CCC(c2c(C(=O)NCc3ccco3)cnn2-c2ccccc2Cl)CC1 -10.4%, COc1ccc(C(=O)Nc2cc(S(=O)(=O)c3ccc(Cl)cc3)c(O)c(C)c2C)cc1 -16.1%, Fc1ccc(-n2ncc3c(NCCC4=CCCCC4)ncnc32)cc1 -10.2%, CCOc1ccc(OCC)c(NC(=O)C(NS(=O)(=O)c2cccs2)c2ccccc2)c1 (configuration not stated) 0.994%, COc1ccccc1NC(=O)Cn1nc(-c2ccc(C)cc2)c2c(c1=O)CCCC2 -1.24%, O=C(Nc1ccc(Br)cc1)C(Cc1ccccc1)NS(=O)(=O)c1cccc2nsnc12 (configuration not stated) -11.9%, CCOc1cc(C(=O)Nc2ccc(-c3nc4ccccc4s3)cc2Cl)cc(OCC)c1OCC 2.43%, Cc1cccc(C)c1NC(=O)Cn1c(=O)n(Cc2ccc3c(c2)OCO3)c(=O)c2oc3ccccc3c21 -8.87%, CCc1ccc(-n2nc3cc(C)c(NC(=O)c4cc(OC)cc(OC)c4)cc3n2)cc1 -6.33%, CC(C)(C)c1ccc(C(=O)NCC(c2cccs2)S(=O)(=O)c2cccs2)cc1 (configuration not stated) -9.64%, Cc1ccc(CNC(=O)c2c(C)oc3nc(C)nc(N4CCOCC4)c23)cc1 3.27%, COc1ccccc1CCNC(=O)Cc1c(C)c2cc3c(C)coc3cc2oc1=O -13.5%, Cc1cc(C)c2c(CC(=O)Nc3ccc(S(=O)(=O)N4CCCCC4)cc3)coc2c1 -18.4%
